Assay results: PubChem BioAssay AID1159614 (National Center for Advancing Translational Sciences (NCATS), 2016)
In all, about 45,000 compounds went through this assay and about 65 (0.1%) were called active. Calls follow the shape of the dose curve; as a rule, active = well fitted activation curve with a large enough effect; inconclusive = small, poorly fitted or top-dose-only effect; inactive = no such curve, though single readings can be large or run the other way. This is one part of the list.

These compounds were tested against Galactocerebrosidase (Homo sapiens) (UniProt P54803) (assay: A Novel Cell-Based Assay to Identify Small Molecules for B -Galactocerebrosidase). Details: 145M-Twi-hGALC-G270D cells (Twitcher mouse brain line with human GALC G270D), HMU-beta-Gal fluorescence, 48 h; series mostly up to 57.5 µM; activation: at the top concentration.
Method in brief: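 Fluorescence readout: HMU-β-gal cleavage by mutant GALC (0.1 mM final, citrate/phosphate pH 5.2 with 1 mg/mL taurocholate), stopped with carbonate/bicarbonate plus Triton X-100. Cells: murine Twitcher 145M-Twi expressing human G270D GALC; qHTS for activators.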
Also: nearly all actives have a fitted effect of over 65% in size.
For activation in this document: 0% is about no effect.
Potency is read from the fitted curve at half-maximal effect.

UniProt P54803, sequence (P54803 whole entry, looked up): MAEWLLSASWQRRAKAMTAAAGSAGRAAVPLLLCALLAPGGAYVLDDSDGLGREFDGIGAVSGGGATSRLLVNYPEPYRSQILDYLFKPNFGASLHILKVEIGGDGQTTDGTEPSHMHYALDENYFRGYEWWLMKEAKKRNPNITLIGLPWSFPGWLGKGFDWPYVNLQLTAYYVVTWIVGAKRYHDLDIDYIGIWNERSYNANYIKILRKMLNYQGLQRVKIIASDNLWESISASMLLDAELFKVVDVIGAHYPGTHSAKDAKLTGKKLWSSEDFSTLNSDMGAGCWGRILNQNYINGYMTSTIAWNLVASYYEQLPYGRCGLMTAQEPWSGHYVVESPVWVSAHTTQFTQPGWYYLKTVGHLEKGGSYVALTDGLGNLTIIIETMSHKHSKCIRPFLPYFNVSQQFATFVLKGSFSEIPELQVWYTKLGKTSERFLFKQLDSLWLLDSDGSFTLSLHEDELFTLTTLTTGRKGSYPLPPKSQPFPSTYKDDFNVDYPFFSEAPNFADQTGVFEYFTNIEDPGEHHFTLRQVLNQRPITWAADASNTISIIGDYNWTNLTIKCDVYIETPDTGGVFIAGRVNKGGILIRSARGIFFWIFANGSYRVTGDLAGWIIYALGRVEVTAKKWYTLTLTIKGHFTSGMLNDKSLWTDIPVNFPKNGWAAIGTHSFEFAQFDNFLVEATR

SMILES | activation | Potency
CSc1ccc(CCNC(=O)c2ccc(-c3nc(COc4ccccc4)c(C)o3)cc2)cc1 | inactive: -21.3% | –
Cc1ccc(Cn2ccn(Cc3ccccc3F)c(=O)c2=O)cc1 | inactive: -10.7% | –
COc1ccc(NC(=O)Cn2c(=O)n(CCC(=O)NCc3ccccc3OC)c(=O)c3ccccc32)cc1Cl | inactive: -7.27% | –
COc1ccc(Cl)cc1N(C)C(=O)c1ccc2c(=O)n3c(nc2c1)CCCCC3 | inactive: -7.43% | –
COc1ccc(CCNC(=O)CCn2c(=O)c3ccccc3n(Cc3cc(C)ccc3C)c2=O)cc1OC | inactive: -13.2% | –
Cc1cccc(NC(=O)c2ccc3snnc3c2)c1 | inactive: -9.43% | –
CCN1CCOC(=O)C1CC(=O)Nc1cc(C)ccc1OC (configuration not stated) | inactive: -14.8% | –
Cc1ccc2nc(-c3ccc(Cl)c(NC(=O)COc4cccc(C)c4C)c3)oc2c1 | inactive: -4.06% | –
Cc1cc2c(cc1NS(=O)(=O)c1ccc(F)cc1)n(C)c(=O)c(=O)n2C | inactive: -8.72% | –
CCc1cccc(C)c1NS(=O)(=O)c1cc2[nH]c(=O)c(=O)[nH]c2cc1C | inactive: -3.97% | –
CCN(CC)c1ccc(NC(=O)CCS(=O)(=O)c2cc3c(cc2Cl)NC(=O)CO3)c(C)c1 | inactive: -13.5% | –
CCCc1cc(=O)[nH]c2nnc(SC(C)CC)n12 (configuration not stated) | inactive: -1.99% | –
CCOC(=O)c1sc(NC(=O)/C=C/c2ccc(C(C)C)cc2)c(C(=O)OCC)c1C | inactive: -21.3% | –
Cc1cc(NS(=O)(=O)c2ccc(NC(=O)c3ccccc3C)cc2)nc(C)n1 | inactive: -9.92% | –
COc1ccc(N(C(=O)c2ccc(OC)c(OC)c2)S(=O)(=O)c2ccc(Cl)cc2)cc1 | inactive: -13.1% | –
COc1cccc(NC(=O)CSc2nnc3scc(-c4ccc(Cl)cc4)n23)c1 | inactive: -16.9% | –
Cc1ccc(C)c(NC(=O)CC2NCCNC2=O)c1 (configuration not stated) | inactive: 4.41% | –
CCc1nnc(SCC(=O)Nc2ccccc2Cl)nc1CC | inactive: -6.76% | –
CC(C)COc1ccc(C(=O)NCC2(N3CCN(C)CC3)CCCCC2)cc1 | inactive: -26.7% | –
COCCNC(=O)Cn1nc(C)c2c(C)n(-c3ccc(C)cc3)nc2c1=O | inactive: -10% | –
CCc1ccc2ncc3c(-c4ccccc4)nn(-c4ccccc4)c3c2c1 | inactive: 28.1% | –
CCc1ccc(NCc2cc3cc4c(cc3n(CC(=O)Nc3cccc(OC)c3)c2=O)OCO4)cc1 | – | active: 28.2 µM
CCCN(CCC)C(=O)Cn1c(=O)n(-c2cccc(OC)c2)c(=O)c2c3c(sc21)CCCC3 | inactive: -13.3% | –
Cc1ccn2c(=O)cc(COc3ccc(NC(=O)COc4ccc(Cl)cc4)cc3)nc2c1 | inactive: -5.46% | –
CCCC(C(=O)NCc1cccc(Cl)c1)N1Cc2ccccc2C1=O (configuration not stated) | inactive: -15.8% | –
O=C(CCCCn1c(=O)c2ccccc2n(Cc2ccccc2Cl)c1=O)NCCc1ccccc1 | inactive: -1.27% | –
Cc1csc2nc(COC(=O)c3cccc(NC(=O)COc4ccc(Cl)cc4)c3)cc(=O)n12 | inactive: -10.3% | –
